Test results taken from the supplement of paper PMC7238544.
Structures can show the parent of a compound that is named as a salt. ± gives the standard deviation of the averaged measurements. The list shows a part of the results.

How the values were obtained:
Details in all cases: priming compound concentration 100 µM
hAMSC donor 1 [1] = assay: transgenic luciferase activity (RLU/mg protein) fold change vs vehicle control (ratio); higher = more transgene expression
hAMSC donor 2 [2] = assay: as above
hAMSC donor 1 [3] = assay: transfection efficiency (EGFP+ cells / Hoechst count) fold change vs vehicle control (ratio); higher = enhanced transfection
hAMSC donor 2 [4] = assay: as above
hAMSC donor 1 [5] = assay: Hoechst total cell count ratio vs vehicle control; hAMSC are human adipose-derived mesenchymal stem cells given an EGFP-luciferase plasmid by lipofection; higher = more cells (less toxicity)
hAMSC donor 2 [6] = assay: as above
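Wherever Hoechst total cell count ratio vs vehicle control is given: compound added 30 min before Lipofectamine 3000 lipoplex delivery, triplicate-well means expressed against DMSO vehicle control wells of the same 96-well plate.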
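Wherever transfection efficiency (EGFP+ cells / Hoechst count) fold change vs vehicle control is given: compounds added 30 min before Lipofectamine 3000 lipoplex transfection, triplicate means relative to DMSO vehicle wells on the same plate, luciferase RLU normalized to BCA total protein.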
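Wherever transgenic luciferase activity (RLU/mg protein) fold change vs vehicle control is given: compounds in DMSO added 30 min before Lipofectamine 3000 transfection of pEGFP-Luc in 96-well plates, values are means of triplicate wells over DMSO vehicle wells on the same plate.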

| SMILES | transgenic luciferase activity (hAMSC donor 1 [1]) | transgenic luciferase activity (hAMSC donor 2 [2]) | transfection efficiency (hAMSC donor 1 [3]) | transfection efficiency (hAMSC donor 2 [4]) | Hoechst total cell count ratio (hAMSC donor 1 [5]) | Hoechst total cell count ratio (hAMSC donor 2 [6]) |
| --- | --- | --- | --- | --- | --- | --- |
| COc1ccc(CCN(C)CCCC(C#N)(c2ccc(OC)c(OC)c2)C(C)C)cc1OC (stereo not given) [Verapamil hydrochloride] | 1.16 ± 0.27 | 0.814 ± 0.21 | 1.83 ± 0.069 | 1 ± 0.053 |  |  |
| Clc1ccc(CO/N=C(\Cn2ccnc2)c2ccc(Cl)cc2Cl)c(Cl)c1 [Oxiconazole nitrate] | 0.000982 ± 0.00021 |  | 0.498 ± 0.16 | 0.591 ± 0.51 | 0.294 ± 0.089 | 0.0323 ± 0.025 |
| CC(C)C(=O)Nc1ccc([N+](=O)[O-])c(C(F)(F)F)c1 [Flutamide] | 1.77 ± 0.49 |  | 1.11 ± 0.25 | 0.874 ± 0.21 | 1.16 ± 0.056 | 1.5 ± 0.41 |
| COc1ccc(CC2c3cc(OC)c(OC)cc3CC[N+]2(C)CCC(=O)OCCCCCOC(=O)CC[N+]2(C)CCc3cc(OC)c(OC)cc3C2Cc2ccc(OC)c(OC)c2)cc1OC (stereo not given) [Atracurium besylate] | 0.00475 ± 0.0013 | 0.000616 ± 2.1e-05 |  | 0.846 ± 0.44 | 0.0353 ± 0.0095 | 0.162 ± 0.13 |
| CCOC(=O)N1CCC(=C2c3ccc(Cl)cc3CCc3cccnc32)CC1 [Loratadine] | 0.329 ± 0.096 | 1.3 ± 0.35 | 0.694 ± 0.17 | 1.41 ± 0.49 |  |  |
| COc1ccc([C@@H]2Sc3ccccc3N(CCN(C)C)C(=O)[C@@H]2OC(C)=O)cc1 [(+)-cis-Diltiazem hydrochloride] | 10.8 ± 3.4 |  | 1.5 ± 0.12 | 0.808 ± 0.2 | 1.79 ± 0.12 | 1.73 ± 0.18 |
| CC(C(=O)O)c1cccc(C(=O)c2ccccc2)c1 (stereo not given) [Ketoprofen] | 0.635 ± 0.079 | 0.71 ± 0.12 | 1.35 ± 0.36 | 0.868 ± 0.083 |  |  |
| C[C@@H]1C/C=C/C=C/C=C/C=C/[C@H](O[C@@H]2O[C@H](C)[C@@H](O)[C@H](N)[C@@H]2O)C[C@@H]2O[C@](O)(C[C@@H](O)C[C@H]3O[C@@H]3/C=C/C(=O)O1)C[C@H](O)[C@H]2C(=O)O [Natamycin] | 0.052 ± 0.027 |  | 0.354 ± 0.032 | 0.419 ± 0.07 | 1.58 ± 0.13 | 2.5 ± 0.34 |
| C[C@H]1c2cccc(O)c2C(=O)C2=C(O)[C@]3(O)C(=O)C(C(N)=O)=C(O)[C@@H](N(C)C)[C@@H]3[C@@H](O)[C@@H]21 [Doxycycline] | 0.961 ± 0.12 |  |  |  | 1.59 ± 0.14 | 2.12 ± 0.24 |
| O=C(CCCN1CC=C(n2c(=O)[nH]c3ccccc32)CC1)c1ccc(F)cc1 [Droperidol] | 0.142 ± 0.02 |  | 0.704 ± 0.081 | 0.64 ± 0.068 | 1.53 ± 0.13 | 1.16 ± 0.066 |
| COC(=O)C[C@](O)(CCCC(C)(C)O)C(=O)O[C@@H]1C(OC)=C[C@]23CCCN2CCc2cc4c(cc2[C@H]13)OCO4 [Homoharringtonine] | 0.0142 ± 0.011 |  | 0.338 ± 0.22 | 0.0857 ± 0.15 | 0.518 ± 0.15 | 0.15 ± 0.041 |
| CC(C)C[C@@H](NC(=O)OCC1c2ccccc2-c2ccccc21)C(=O)O [N-Fmoc-D-leucine] | 0.62 ± 0.25 |  | 1.86 ± 0.14 | 0.834 ± 0.044 | 1.101 ± 0.011 | 1.34 ± 0.21 |
| Cc1cn([C@H]2C[C@H](N=[N+]=[N-])[C@@H](CO)O2)c(=O)[nH]c1=O [Zidovudine] | 1.99 ± 1.1 |  | 1.49 ± 0.14 | 1.11 ± 0.2 | 1.16 ± 0.062 | 1.2 ± 0.33 |
| Cc1ccc(C)c(OCCCC(C)(C)C(=O)O)c1 [Gemfibrozil] | 0.538 ± 0.32 |  | 1.2 ± 0.074 | 0.843 ± 0.3 | 1.44 ± 0.4 | 1.38 ± 0.2 |
| CC(=O)CC(c1ccccc1)c1c(O)c2ccccc2oc1=O (stereo not given) [Warfarin sodium] | 0.632 ± 0.39 |  | 0.995 ± 0.21 | 0.89 ± 0.088 | 1.66 ± 0.088 | 1.36 ± 0.13 |
| O=C1CCc2cc(OCCCCc3nnnn3C3CCCCC3)ccc2N1 [Cilostazol] | 0.937 ± 0.082 |  | 0.815 ± 0.18 | 0.747 ± 0.15 | 1.37 ± 0.051 | 1.79 ± 0.17 |
| CN/C(=N\CCSCc1nc[nH]c1C)NC#N [Cimetidine] | 2.4 ± 1.1 |  | 1.36 ± 0.33 | 1.05 ± 0.19 | 1.55 ± 0.16 | 1.2 ± 0.16 |
| CNCC[C@H](Oc1cccc2ccccc12)c1cccs1 [Duloxetine hydrochloride] |  | 0.00555 ± 0.0079 | 0.423 ± 0.12 | 0.238 ± 0.28 | 0.0907 ± 0.025 | 0.061 ± 0.028 |
| CNCC(O)c1ccc(O)c(O)c1 (stereo not given) [Racepinephrine] | 0.629 ± 0.29 |  | 0.657 ± 0.12 | 0.516 ± 0.1 | 1.42 ± 0.089 | 1.16 ± 0.17 |
| CCc1cccc2c3c([nH]c12)C(CC)(CC(=O)O)OCC3 (stereo not given) [Etodolac] | 0.519 ± 0.07 |  | 0.951 ± 0.22 | 0.8 ± 0.14 | 1.14 ± 0.069 | 1.11 ± 0.08 |
| O=C(O)c1cc(=O)c2c(OCC(O)COc3cccc4oc(C(=O)O)cc(=O)c34)cccc2o1 [Cromolyn sodium] | 0.815 ± 0.3 |  | 0.775 ± 0.18 | 0.866 ± 0.11 | 1.41 ± 0.016 | 1.36 ± 0.15 |
| Clc1ccc2c(c1)C(N1CCNCC1)=Nc1ccccc1O2 [Amoxapine] |  | 0.00166 ± 0.00034 | 0.602 ± 0.53 | 0 | 0.102 ± 0.041 | 0.108 ± 0.052 |
| O=C1CCC(N2C(=O)c3ccccc3C2=O)C(=O)N1 (stereo not given) [Thalidomide] | 0.905 ± 0.54 |  | 1.23 ± 0.018 | 0.845 ± 0.1 | 1.49 ± 0.12 | 0.774 ± 0.1 |
| CN1[C@@H]2CC[C@H]1C[C@@H](OC(=O)c1c[nH]c3ccccc13)C2 [Tropisetron hydrochloride] | 0.231 ± 0.083 |  | 0.854 ± 0.11 | 0.772 ± 0.077 | 1.42 ± 0.18 | 1.06 ± 0.14 |
| CC12CC3CC(C)(C1)CC(N)(C3)C2 [Memantine hydrochloride] | 0.778 ± 0.15 |  | 0.92 ± 0.2 | 0.797 ± 0.056 | 1.94 ± 0.26 | 1.19 ± 0.17 |
